Source: PubChem BioAssay AID504832 (National Center for Advancing Translational Sciences (NCATS), 2011)
In all, about 310,000 compounds went through this assay and about 18,000 (5.8%) were called active. The inconclusive results got no clear call from the source; some entries with a clear call stand among them for comparison. Calls follow the shape of the dose curve; as a rule, active = well fitted inhibition curve with a large enough effect; inconclusive = small, poorly fitted or top-dose-only effect, or another doubt; inactive = no such curve, though single readings can be large or run the other way. No potency is given beside an inconclusive call; the fits are too rough.

test: Primary qHTS for delayed death inhibitors of the malarial parasite plastid, 48 hour incubation; conditions: P. falciparum luciferase growth in erythrocytes; series mostly up to 28.7 µM
Summary of the method: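 Growth was read as firefly luciferase luminescence after a 48 h, 37 C, 5% CO2 exposure of compounds to reporter-bearing P. falciparum cultures (0.1% parasitemia, 2% hematocrit final) in Albumax-supplemented RPMI 1640.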
Potency is read from the fitted curve at half-maximal effect; tags tell the direction and shape of the fitted curve.

| Structure (SMILES) | Potency |
| --- | --- |
| Cc1nc(N2CCOCC2)nc2c1CCC2 | inactive |
| CN(c1ccc(OCC(=O)N2CCOCC2)cc1)S(=O)(=O)c1ccc(Cl)cc1 | inactive |
| COc1ccc(CCn2ccc(O)c(Cc3ccc(Cl)cc3Cl)c2=O)cc1OC | inconclusive [inhibitor, partial curve] |
| O=C(NCC(=O)N1CCN(c2ccccc2O)CC1)c1ccc2c(c1)OCO2 | inconclusive [inhibitor, single point] |
| CCC(C)C1C(C#N)=C(N)OC2=C1C(=O)CC(C)(C)C2 (stereo not drawn) | inconclusive [inhibitor, single point] |
| O=C(COC(=O)c1nc(Cl)ccc1Cl)NCCc1ccccc1 | inconclusive [inhibitor, partial curve, poor fit] |
| O=C(O)C1Cc2ccccc2N2CCCC12 (stereo not drawn) | inconclusive [inhibitor, partial curve] |
| OCCN1CCN(Cc2cccc(Oc3ccc(Cl)cc3)c2)CC1 | inconclusive [inhibitor, partial curve, poor fit] |
| NC(=O)NC(=O)C(c1ccccc1)N1CCN(S(=O)(=O)c2ccc(Br)s2)CC1 (stereo not drawn) | inconclusive [inhibitor, single point] |
| O=C(CSc1ccccn1)N/N=C/C=C/c1ccccc1 | inconclusive [inhibitor, single point] |
| CCOC(=O)/C=c1\s/c(=C\c2ccccc2C)c(=O)n1CC(=O)NCc1ccc2c(c1)OCO2 | inconclusive [inhibitor, single point] |
| CC(C)CCCN1C(Nc2ccccc2)=NC[C@@H]1Cc1ccccc1 | inconclusive [inhibitor, single point] |
| CCCn1c(SCC(=O)N2CCN(S(=O)(=O)c3ccc(Cl)cc3)CC2)n[nH]c1=O | active: 10.4 µM |
| CC(Sc1nnnn1C)C(=O)Nc1ccc(N2CCOCC2)cc1 (stereo not drawn) | inactive |
| COc1ccccc1N(CC(=O)NCc1ccccc1)C(=O)CCC(=O)Nc1ccccn1 | inconclusive [inhibitor, partial curve] |
| O=C(NCCc1c[nH]c2ccccc12)C(=O)NCC1OCCCN1S(=O)(=O)c1ccc(F)cc1 (stereo not drawn) | inconclusive [inhibitor, partial curve, poor fit] |
| COc1ccc(C(=O)c2c[nH]c3ccccc23)cc1 | inactive |
| O=C(OCc1ccc(Br)cc1F)c1cc2ccccc2oc1=O | inactive |
| CC(C)CCC(C)NC(=O)C1CCN(S(=O)(=O)/C=C/c2ccccc2)CC1 (stereo not drawn) | inconclusive [inhibitor, single point] |
| COCCCNC(=O)CSc1nc2ccccc2c(=O)n1CCC(=O)NCCc1ccc(OC)c(OC)c1 | inconclusive [inhibitor, full curve, poor fit] |
| O=C(COC(=O)C1CCN(S(=O)(=O)c2cccs2)CC1)Nc1ccc(F)cc1F | inactive |
| COc1ccc(OC)c(NC(=O)Cn2cc(C#N)c3cc(Br)ccc32)c1 | inconclusive [inhibitor, single point] |

| Structure (SMILES) | Potency |
| --- | --- |
| Cn1nc(-c2ccc(C(=O)NCC3CCCO3)cc2)c2ccccc2c1=O (stereo not drawn) | inconclusive [inhibitor, single point] |
| CCOc1ccc(NC(=O)c2ccc(OC)cc2)cc1 | inactive |
| CCC(c1nnc(SCC(=O)Nc2ccc(C(=O)Nc3ccccc3OC)cc2)o1)N(C)C (stereo not drawn) | inconclusive [inhibitor, partial curve] |
| CN(C)CCn1c2c(c(SCC(=O)Nc3cccc(C(F)(F)F)c3)nc1=O)CCCC2 | inconclusive [inhibitor, single point] |
| O=S(=O)(N/N=C/c1ccccc1OCc1ccc(Cl)cc1)c1ccccc1 | inactive |
| CC1CCCCC12NC(=O)N(CC(=O)OCc1ccc(Br)cc1)C2=O (stereo not drawn) | inconclusive [inhibitor, single point] |
| CCN(CC)CCNCc1ccc(-c2ccc(Cl)cc2)o1 | inconclusive [inhibitor, single point] |
| CCOC(=O)c1c(C)[nH]c(C(=O)N/N=C/c2ccc(Br)cc2)c1C | inactive |
| COc1ccc(CCNC(=O)C(=O)NCC2CCCN2S(=O)(=O)c2ccc(OC)cc2)cc1 (stereo not drawn) | inconclusive [inhibitor, single point] |
| Fc1cccc(C[n+]2csc3ccccc32)c1 | inconclusive [inhibitor, full curve, poor fit] |
| CCOc1ccc(N2CC(O)(c3cccs3)[N+]3=C2CCCC3)cc1 (stereo not drawn) | inconclusive [inhibitor, single point] |
| CN(CC(=O)N(CCO)Cc1ccccc1)S(=O)(=O)c1ccc2c(c1)c(=O)n(C)c(=O)n2C | inconclusive [inhibitor, single point] |
| O=C(c1ccc(Cl)cc1)N1CCN(c2cc(=O)[nH]nc2-c2ccccc2)CC1 | inconclusive [inhibitor, full curve] |
| CN(C)c1cc[n+](CC[n+]2ccc(N(C)C)cc2)cc1 | inconclusive [inhibitor, single point] |
| COc1cc(-c2nc(CN3CCCN(C(=O)c4ccco4)CC3)c(C)o2)ccc1F | inconclusive [inhibitor, single point] |
| CC(=O)c1c(C)[nH]c(C2=NNC(=NCc3ccccc3)SC2)c1C | inconclusive [inhibitor, single point] |
| CSc1nsc(/C=C/Nc2ccc(O)cc2C)c1C#N | inconclusive [inhibitor, partial curve, poor fit] |
| Cn1c(=O)c2[nH]c(N3CCN(c4ccccc4)CC3)nc2n(C)c1=O | inactive |
| CCc1ccccc1N(C(C)=O)c1nc(CN=C=S)cs1 | inconclusive [inhibitor, partial curve, poor fit] |
| O=C(c1cc2cc(Br)ccc2[nH]1)N1CCC2(CC1)OCCO2 | inconclusive [inhibitor, single point] |
| CSc1cccc(NC(=O)/C=C/c2ccccc2)c1 | inactive |
